Measurements reported in the supplement of paper PMC3334620.
The full ranking holds about 33,000 sequences; the median of “E-score (-0.5 to 0.5)” is about -0.01, and the highest 2% start at about 0.26. Some of the results follow.

Target: Ste12 (UniProt P13574)
Assay: PBM E-score (8-mer binding enrichment) (E-score (-0.5 to 0.5)); higher = stronger / more preferred TF binding; most listed sequences are background and not binding sites
Settings: protein concentration: 200 nM; construct: GST-DNA-binding domain
Procedure, shortened: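 Yeast transcription factors carrying a GST tag, as full-length proteins or DNA-binding domains, were produced by PURExpress in vitro transcription/translation. About 100-200 nM protein was applied to universal all-10-mer Agilent arrays, double-stranded by primer extension on fresh or once-stripped slides. Bound protein was detected with fluorescent anti-GST, and scans were normalised with masliner. The Universal PBM Analysis Suite gave each ungapped eight-base word, pooled with its reverse complement, an E-score, a modified Wilcoxon-Mann-Whitney statistic.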

Sequence	PBM E-score
ATCATCCG	-0.034
TCGGCACA	-0.094
GACGGCCC	-0.16
ACCCGGCT	0.0608
CTGTTCCA	-0.0105
AAGCAGGC	-0.228
TCTGCACA	0.066
GACTGTTA	-0.0718
GAAATCTC	-0.109
GGCCGTCA	0.00666
ATTGACTA	0.154
CCAGGGAG	-0.199
CTCTTGGA	-0.0611
CCTGCGCG	-0.139
CCGCCTCA	-0.0226
AGAAGGGG	-0.128
CATCCTTA	-0.0117
ACATTCAC	0.205
ACGTTAAC	-0.0588
CGAAGATA	0.237
GTCTCCCA	-0.2
ATTTGATG	0.126
ACGCTCTG	-0.106
CCACCATA	0.143
ACCAACCC	-0.186

Sequence	PBM E-score
CGCGCCGC	0.142
CATGGACG	-0.117
CTGTGCCA	0.0264
CGCTCCCG	-0.0785
ACGTCGGA	-0.0246
ACAGCTGA	-0.0336
AGAATTAT	0.145
AAGTCACC	-0.0787
CTAAGCTA	0.0984
AACGCGTG	0.104
CTTCCTCC	-0.116
AGGTTCAG	-0.107
CTTAAAAA	0.22
GGAGCTGA	-0.167
ACTGCTCC	-0.108
AGTCGGGC	-0.00532
GAATGGAA	0.0462
GGATCGGA	-0.0609
CCTCCGAG	-0.00323
TGCAAGAA	0.217
GATGGTCA	-0.187
AAATCAGG	0.0787
CCAGAGGA	-0.0683
ACACGAGG	-0.185
CCGAACGC	0.111

Sequence	PBM E-score
AAGGGTAA	0.0708
CGAAATCG	0.0722
CTTAGATC	-0.0476
CTGAACAA	0.0423
CGGCCAGA	0.11
ACTGTATG	0.111
GGTGACTA	-0.014
CCTGATGC	-0.0515
AACCCATT	0.137
ACGGCTAG	-0.175
AGGTGACG	-0.0406
AAGAGTCG	-0.029
CCCGAGAA	-0.059
ATTGAACA	-0.184
ATACCCAG	-0.212
CAATATAA	0.316
TGCGAGCA	0.0352
CGTACGGC	-0.295
ATATAACG	0.117
CACGTCAC	-0.0135
GGGATCCA	-0.0636
CGTGTAGA	-0.17
CGCAGGCC	-0.0991
CGAAGCCC	-0.192
GGCCACAA	0.0783

Sequence	PBM E-score
AAGCAGTG	0.0293
GAAACGGA	0.343
ATTGTCGC	-0.0604
ATATGAGG	0.119
CGCAGCGA	0.0229
CGCGCGTC	0.0795
CCCCGCAG	-0.0523
CCTCTATA	-0.181
ACGAAAAA	0.193
CGGCTAAG	0.0459
AAAGCTAG	-0.136
CTCGAGGC	0.0437
CCGGCACG	0.0757
GGGTCCCA	-0.198
CGTTCGAG	0.0395
ACCACGGC	0.0716
CGACGACA	-0.141
AGGAGTCA	-0.0486
GGAAGAAC	0.145
AATGTCGA	0.0998
CGATTGAG	-0.0934
ACTATGAG	0.0271
GAATTATA	0.0936
CTACTACA	0.0777
CAACAGTG	0.104

Sequence	PBM E-score
ACACCCCA	0.111
TCTGTTCA	0.116
CTATAGGA	-0.0736
ATCCTCCA	-0.0976
ACGACTAC	-0.16
GCTGTGAC	0.0498
CCGCCTCG	0.0814
AGGTTGTA	-0.0118
ACCCACGG	-0.198
ACGTGGCA	-0.00588
AAATGCGA	0.137
CGGGCTTC	-0.213
ACAGGAAC	-0.22
TTCATAAA	0.324
GGCGACGA	-0.183
AGTGTCGA	0.0108
GACTTATA	0.108
GCATTGTA	0.00828
ATCTCGGA	0.112
ACACTACG	0.0597
CAATTGTC	0.00294
CACGAAAC	0.266
GGCAAAAC	0.133
CCGTGCCA	-0.0583
ACATGCTC	-0.0805

Sequence	PBM E-score
ATATAAGC	0.00789
TAATGGGA	-0.0633
TAGCAGCA	-0.0575
CCGACGCG	0.0801
TCATCCGA	0.156
CCTCCAAC	-0.0724
ACGATATA	0.0426
CACAGAAG	0.0368
AGTCCAAG	-0.0393
TCTATTAA	0.194
GGAAAGAC	-0.0937
ATAAAAGG	0.0863
GAAATTTA	0.166
CCTAAGCG	-0.0853
GCTGGTGA	-0.00584
GCGACCTA	-0.062
AGGACAAC	-0.053
GCAATACC	-0.112
GTTAGCCA	-0.00505
AACTACGT	-0.146
ACATATAA	0.241
ATTACAGG	0.139
ATGACAGA	-0.0195
GGACCGAA	0.0478
AAGGGAAC	-0.0941

Sequence	PBM E-score
ACGGCCGT	-0.0176
ATCTAAGA	0.236
ACGTAACA	0.125
ATGTGTGC	-0.0685
CTTGCGGA	-0.232
TAGTGCAA	0.0163
CATAACGA	0.0786
CGCAATAA	0.152
CCGAACCG	-0.0618
AGCGACAT	-0.0374
ATTATACA	0.00029
CAAGGAGA	-0.168
AAAACGAT	0.0767
CAAATCGC	-0.109
GAGGGACC	-0.154
CTTAAGTC	-0.0579
ACGCTCGG	-0.0861
AACGCCCT	-0.0731
CGGAGGAG	0.00265
CAACAGCG	0.0502
GGGGCCAC	-0.0652
AGTTGGTC	-0.0312
ATTCGAAA	0.286
GCCGGCAC	0.185
GGATGCAC	-0.116

Sequence	PBM E-score
ATATGCAT	-0.00898
CAGGTCCC	-0.104
AGCACATG	0.0517
GTATAGTA	0.0829
CTCAAAGA	-0.121
AGAGTGTC	-0.038
ACAGAAAG	0.171
CACGAGTG	-0.123
GAAATAAC	0.121
AACAGTGC	-0.0232
CTTAATAA	0.232
GAGACAAA	0.0489
CGCGCCCA	0.0944
TAACTTAA	0.181
TATCAACA	0.149
ACGGCTAA	0.0492
GCAGTCGA	-0.137
GGCGGTGA	0.0499
ACCTTTAC	0.122
CGTCAAAA	0.222
ATATGGAA	0.152
GTGGTAAC	7e-05
AGCGCTTG	0.0698
CGTATTGA	-0.0513
AAGAATGC	0.0457

Sequence	PBM E-score
ACCCTCCG	-0.135
ACCGGACG	0.0849
CTGGTAGC	-0.0426
CATAGTCG	-0.0118
AACAACAG	0.0455
CAAGGACA	-0.162
ATATCTTG	0.0172
ACTATAAA	0.241
GGGCACTA	-0.26
AATCGACG	-0.226
CGATTGGA	0.0116
GTCGTCAA	-0.0716
GAATATAC	-0.00195
AATCTCGT	-0.113
CCTCACAA	0.116
TAAAAATA	0.318
ATGAAGTA	-0.0129
AGTTCAGC	-0.18
ACACCGAA	0.108
AGCGTCTA	-0.136
GTCCGTCA	-0.0791
AGAAACCT	0.0443
ACGTGACA	-0.0169
ACTGGACA	-0.139
GACCGAGC	-0.0435

Sequence	PBM E-score
ACTACTCT	-0.01
AATGTATA	-0.0582
GCATGGAA	0.107
CAGCGTTC	-0.188
ATAGTATA	0.154
AATAGGAC	-0.0484
AATCGTAC	0.00489
GCTTTATA	0.132
GCAATAAC	0.0195
GACCGACA	-0.099
ACTCAATA	0.162
GAATCGAA	0.296
CATGTACG	-0.0362
CAGTCAGC	-0.105
CTTCAAAA	0.191
AAAATGGA	0.237
GGATGACC	-0.203
AGAGTAAG	-0.0257
CCGTGCAA	-0.0521
AGTGTCAC	-0.00393
AACACTAT	0.101
GACCAGCC	0.0084
AGGGGTCG	-0.144
CTGCTGAA	0.0211
CTGTCGTC	0.0262

Sequence	PBM E-score
ATGAAACA	0.495
AGCAGCAC	-0.131
TACAACTA	0.268
CTCATTAA	0.111
TCATTGGA	0.0443
CCATTGCG	-0.0146
CCCTATGA	-0.0337
TGAGTACA	-0.0797
ATAAGCAA	0.148
ATGCGGTG	-0.0382
CCTTGAAA	0.21
GAACCATA	0.0795
AAGGCACT	-0.0898
TGAGACAA	0.274
ACACCTCG	-0.00674
GAGGACGA	-0.111
ATTGCACG	0.206
CTCCCTGC	-0.133
GTGCGAGA	0.127
CGGTCGAG	0.0722
CTCTCTCC	-0.224
CCGGTAGC	-0.213
CTCAGTTA	0.0251
CGAAGAAC	0.0849
AGTCTCTA	-0.102

Sequence	PBM E-score
AATTAGTA	0.263
GCAGGAAA	0.0227
TGATGAAA	0.258
ATTGTTAC	0.297
CGGTTCGA	0.0766
AGAGCCGG	-0.0983
TAAGGAAA	-0.0536
ATTATCTC	0.104
CAGTAGAG	-0.141
CTGGCAAG	-0.00041
AGCTTATG	-0.0351
ACAAGTTA	0.0925
ACGTCTGC	-0.226
AAAAGACG	0.0308
AGGACGCG	-0.187
CACGACCG	-0.221
AGCTCGCG	0.0164
ACGCCGAG	0.095
GAGTCGGA	0.126
GGTGCAAC	-0.255
CCAGTATA	0.00607
CCTTAAAA	0.162
ATCCATAG	-0.0969
AGTCTATG	-0.205
ATCAAGCA	0.0192

Sequence	PBM E-score
TATGACGA	0.0384
CTGCGGTC	-0.0632
GAAAGCCC	0.00308
ATGAAGAA	0.168
GCTCATAC	-0.244
GAATTCTC	0.262
AGAGCCCA	-0.184
GATCCACC	-0.144
AACGTGGT	-0.0847
ATACTGGC	-0.161
CCATCGGG	-0.131
AGGTGCAG	-0.0129
AGTTGTGC	-0.00131
CCGATTCC	0.0929
GGCTGGTA	-0.142
AAAGTGAA	0.19
AGACGGAA	0.0863
ACGAATTA	-0.0187
TCCCTAAA	0.00792
GAGTATAA	0.104
AACGGTTG	0.0246
ATTCGGGC	-0.132
CTACTCAC	0.0346
ACTCCACA	0.067
CGGATGGC	0.0109

Sequence	PBM E-score
ACATTTTA	0.194
GCGTTCGA	-0.0414
CTAGATTC	0.0461
CTAACTCA	-0.122
ATCGAACA	0.0732
ACCAAAGG	-0.192
CGTTTTAA	0.319
GCGCGGAC	0.106
GTAATTTA	0.223
CCCTGGTC	-0.294
CCCAATGC	-0.288
ACCTGAAT	0.173
CGAAGCGA	-0.113
AAACTCAA	0.178
ATGTTTCC	0.178
CGTGGGTC	-0.148
AGAGGGAC	-0.183
ACAGCAGT	0.0122
CGGGCGGC	0.0697
